{
  "source": "the supplement of paper PMC3334620",
  "note": "Over roughly 33,000 sequences, “E-score (-0.5 to 0.5)” has its median near -0.036; the highest 2% begin near 0.37. The list shows a part of the results.",
  "data": [
    {"molecular_target": "T1, Yer064c (UniProt P40041)", "T1 sequence": "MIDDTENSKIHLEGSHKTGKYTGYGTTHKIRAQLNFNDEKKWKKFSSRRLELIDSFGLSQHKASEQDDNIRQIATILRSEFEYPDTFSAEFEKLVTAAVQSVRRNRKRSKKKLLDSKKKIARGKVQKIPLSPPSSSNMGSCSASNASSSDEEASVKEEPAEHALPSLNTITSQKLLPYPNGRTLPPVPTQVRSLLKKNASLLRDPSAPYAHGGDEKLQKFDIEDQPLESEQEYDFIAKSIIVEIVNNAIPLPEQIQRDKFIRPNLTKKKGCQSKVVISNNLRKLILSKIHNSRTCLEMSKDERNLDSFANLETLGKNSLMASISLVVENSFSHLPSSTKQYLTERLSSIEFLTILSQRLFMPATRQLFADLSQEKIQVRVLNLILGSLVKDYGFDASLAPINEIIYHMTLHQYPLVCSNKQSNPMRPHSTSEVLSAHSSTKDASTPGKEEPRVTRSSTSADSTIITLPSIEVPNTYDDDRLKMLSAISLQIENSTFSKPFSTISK", "test": "PBM E-score (8-mer binding enrichment) (E-score (-0.5 to 0.5)); higher = stronger / more preferred TF binding; most listed sequences are background and not binding sites", "details": "protein concentration: 200 nM; construct: GST-full length", "procedure,_shortened": "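Masliner-normalised scans of fluorescent anti-GST signal were the basis for scoring. That signal came from GST-tagged yeast transcription factors applied at about 100-200 nM to double-stranded universal all-10-mer Agilent arrays on fresh or once-stripped slides. Each ungapped eight-base word, pooled with its reverse complement, received an E-score from the Universal PBM Analysis Suite.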", "values": [
      {"sequence": "AAAGAGGG", "PBM E-score": -0.22},
      {"sequence": "TGGATCCA", "PBM E-score": -0.00353},
      {"sequence": "GGCGAAAC", "PBM E-score": -0.0459},
      {"sequence": "GTAGATGA", "PBM E-score": 0.206},
      {"sequence": "AGTGTTAT", "PBM E-score": -0.0428},
      {"sequence": "AATCTTAG", "PBM E-score": 0.244},
      {"sequence": "GATCCCAC", "PBM E-score": -0.0884},
      {"sequence": "ATTTGCGC", "PBM E-score": -0.111},
      {"sequence": "AAGGAAGT", "PBM E-score": 0.0788},
      {"sequence": "ATCTTGTG", "PBM E-score": -0.0245},
      {"sequence": "CCCCGGCC", "PBM E-score": -0.295},
      {"sequence": "CATAACCG", "PBM E-score": -0.102},
      {"sequence": "CGCCTCGA", "PBM E-score": -0.256},
      {"sequence": "ATCCTCAG", "PBM E-score": 0.0699},
      {"sequence": "AACAAAGC", "PBM E-score": -0.14},
      {"sequence": "AGTTTCAT", "PBM E-score": 0.109},
      {"sequence": "CCCCTACA", "PBM E-score": -0.193},
      {"sequence": "ACGCAAAA", "PBM E-score": -0.00655},
      {"sequence": "GCAGCATA", "PBM E-score": -0.172},
      {"sequence": "CCACCGCA", "PBM E-score": -0.132},
      {"sequence": "TACATTCA", "PBM E-score": -0.0847},
      {"sequence": "TGACGACA", "PBM E-score": 0.102},
      {"sequence": "CCCGCGCA", "PBM E-score": -0.1},
      {"sequence": "GGTTTTAC", "PBM E-score": -0.144},
      {"sequence": "CCTTCCGA", "PBM E-score": -0.0766},
      {"sequence": "TACAGACA", "PBM E-score": 0.139},
      {"sequence": "GCACTGGC", "PBM E-score": -0.194},
      {"sequence": "AACGGTAG", "PBM E-score": -0.0657},
      {"sequence": "ATGCTTAC", "PBM E-score": -0.233},
      {"sequence": "GATCGTGC", "PBM E-score": -0.103},
      {"sequence": "CTTCGAAG", "PBM E-score": -0.129},
      {"sequence": "CACCAGAC", "PBM E-score": 0.0322},
      {"sequence": "GAAAAGCA", "PBM E-score": -0.0862},
      {"sequence": "CCGCCGCC", "PBM E-score": -0.183},
      {"sequence": "GCAAGCAA", "PBM E-score": -0.0795},
      {"sequence": "AATTGGAG", "PBM E-score": 0.00265},
      {"sequence": "CAAATTTA", "PBM E-score": 0.0132},
      {"sequence": "CATGCGAC", "PBM E-score": 0.153},
      {"sequence": "GAGCACAA", "PBM E-score": 0.0121},
      {"sequence": "ACTCGTCC", "PBM E-score": 0.318},
      {"sequence": "GCGCGCGA", "PBM E-score": 0.0216},
      {"sequence": "ACAGATGT", "PBM E-score": -0.184},
      {"sequence": "ACTTGGAG", "PBM E-score": -0.131},
      {"sequence": "AGTCGACT", "PBM E-score": 0.357},
      {"sequence": "AGGTTTGC", "PBM E-score": 0.0639},
      {"sequence": "ACTATGGC", "PBM E-score": 0.138},
      {"sequence": "GGTGCGCA", "PBM E-score": -0.115},
      {"sequence": "ATTCGACG", "PBM E-score": -0.00215},
      {"sequence": "ATACCCAC", "PBM E-score": 0.0958},
      {"sequence": "AGTGTGGA", "PBM E-score": -0.0452},
      {"sequence": "TATTCAAA", "PBM E-score": 0.135},
      {"sequence": "GACGAAAC", "PBM E-score": -0.0278},
      {"sequence": "ACATTCCC", "PBM E-score": -0.0936},
      {"sequence": "CTCATCAG", "PBM E-score": 0.286},
      {"sequence": "GCTTCACC", "PBM E-score": -0.155},
      {"sequence": "ATGTTTAG", "PBM E-score": 0.141},
      {"sequence": "TCTCCCAA", "PBM E-score": 0.112},
      {"sequence": "AGGACCGA", "PBM E-score": 0.0116},
      {"sequence": "CAGCGTGA", "PBM E-score": 0.188},
      {"sequence": "AGGATTTA", "PBM E-score": 0.0196},
      {"sequence": "AGTGTCAT", "PBM E-score": 0.0731},
      {"sequence": "AAGATAAA", "PBM E-score": 0.0265},
      {"sequence": "ACGCGAGG", "PBM E-score": -0.163},
      {"sequence": "AAGCGGTA", "PBM E-score": -0.24},
      {"sequence": "CCTCTATC", "PBM E-score": -0.0843},
      {"sequence": "ATGACACC", "PBM E-score": 0.032},
      {"sequence": "ACTCCTAG", "PBM E-score": 0.0989},
      {"sequence": "GGGGCTGA", "PBM E-score": -0.0142},
      {"sequence": "TCGGAACA", "PBM E-score": 0.0871},
      {"sequence": "AATGGACG", "PBM E-score": -0.105},
      {"sequence": "GAGCGTCC", "PBM E-score": -0.254},
      {"sequence": "AGAGTCGC", "PBM E-score": 0.396},
      {"sequence": "AAGGGCCT", "PBM E-score": -0.285},
      {"sequence": "ATTTAACG", "PBM E-score": 0.129},
      {"sequence": "AATGTTGG", "PBM E-score": -0.231},
      {"sequence": "GAAACCGC", "PBM E-score": 0.0639},
      {"sequence": "CGTAGCCC", "PBM E-score": -0.0851},
      {"sequence": "CCAATGCC", "PBM E-score": -0.314},
      {"sequence": "ACGTATCT", "PBM E-score": -0.217},
      {"sequence": "GCACTACA", "PBM E-score": -0.172},
      {"sequence": "ATCGATTA", "PBM E-score": 0.246},
      {"sequence": "AATATCTG", "PBM E-score": -0.166},
      {"sequence": "CACTGGGA", "PBM E-score": -0.111},
      {"sequence": "TAGTTCCA", "PBM E-score": 0.0532},
      {"sequence": "AGGGGGGA", "PBM E-score": -0.362},
      {"sequence": "AATGGTGC", "PBM E-score": -0.324}
    ]}
  ]
}
